# Results are given in words; binding and its absence hold for the method and conditions named. For part of these data: In cells and extracts the contact can be indirect. Some binding calls cover weakened binding; strength is not graded here. For part of these data: Sequences can lack the tags named with a protein.
# Sequences of proteins named here, by UniProt entry; tags and fusion partners are left off. A change or cut given only in a name is not applied to a line headed by its entry.
# UniProt Q92769: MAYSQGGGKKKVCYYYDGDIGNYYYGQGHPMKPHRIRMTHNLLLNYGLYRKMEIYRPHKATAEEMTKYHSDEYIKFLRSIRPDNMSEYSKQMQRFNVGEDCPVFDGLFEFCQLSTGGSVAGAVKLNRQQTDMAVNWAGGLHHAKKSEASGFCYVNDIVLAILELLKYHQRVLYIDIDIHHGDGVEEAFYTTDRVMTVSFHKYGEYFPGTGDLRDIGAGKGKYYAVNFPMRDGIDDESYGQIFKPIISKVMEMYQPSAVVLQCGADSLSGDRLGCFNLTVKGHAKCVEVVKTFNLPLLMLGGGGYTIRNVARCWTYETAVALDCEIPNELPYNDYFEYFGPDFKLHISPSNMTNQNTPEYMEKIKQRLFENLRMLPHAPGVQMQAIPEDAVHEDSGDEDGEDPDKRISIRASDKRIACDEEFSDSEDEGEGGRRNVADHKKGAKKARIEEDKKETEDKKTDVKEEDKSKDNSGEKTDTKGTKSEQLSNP
# Assays:
# [1] = target: Flag-HA-tagged CtBP2 A58E (UniProt P56545); experiment: cross-linking; HeLa cells transfected with Flag-HA-tagged CtBP constructs, treated with DSS one day after transfection; Western blot with the Flag antibody
# [2] = target: Flag-HA-tagged GG-CtBP2 (G189A/G192A) (UniProt P56545); experiment: as above
# [3] = target: Flag-HA-tagged GG-CtBP2 (G189A/G192A) (UniProt P56545); experiment: co-IP; HeLa cells co-transfected with the HBH-tagged and the Flag-HA-tagged copy, 5 μM biotin; lysates adsorbed to streptavidin-agarose beads; FH copy detected with a CtBP2 antibody; no cross-linking
# GST-E1A (adenovirus) = GST-E1A (adenovirus) (UniProt P03254); experiment: pull-down; GST fusion proteins charged on glutathione-agarose beads, incubated with purified H6-CtBP2 or H6-RR-CtBP2 (~0.1 μg) in 200 μl of 25 mM Tris-HCl pH 7.5, 0.25 M NaCl, 0.5% Triton X-100, 0.5 mM DTT for 1 h at 4°C; Western blot with the CtBP2 antibody; both purified
# GST-ZEB101 = target: T1, GST-ZEB101 (UniProt P37275); experiment: as above
# T1 sequence: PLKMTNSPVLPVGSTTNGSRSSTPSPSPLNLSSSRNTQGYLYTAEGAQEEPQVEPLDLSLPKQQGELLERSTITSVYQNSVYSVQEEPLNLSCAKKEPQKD
# [4] = target: Flag-HA-tagged RR-CtBP2 (R147L/R169L) (UniProt P56545); experiment: co-IP; Flag-HA-tagged CtBP proteins transiently expressed in 293 cells; lysates immunoprecipitated with the Flag antibody; Western blots of endogenous co-factors
# [5] = target: Flag-HA-tagged CtBP2 (wild type) (UniProt P56545); experiment: as above
# [6] = target: Flag-HA-tagged GG-CtBP2 (G189A/G192A) (UniProt P56545); experiment: as above
# [7] = target: Flag-HA-tagged CtBP2 (wild type) (UniProt P56545); experiment: co-IP; HeLa cells transfected with Flag-HA-tagged CtBP2 or RR-CtBP2 alone or with GFP-ZEB101 (also in increasing amounts) or GFP-Cter; lysates immunoprecipitated with Flag antibody beads; Western blots
# [8] = target: Flag-HA-tagged RR-CtBP2 (R147L/R169L) (UniProt P56545); experiment: as above
substance,measurement,setting,value
Flag-HA-tagged CtBP2 A58E (from UniProt P56545 1-445),binding,[1],binds
Flag-HA-tagged GG-CtBP2 (G189A/G192A) (from UniProt P56545 1-445),binding,[2],binds
same,binding,[3],binds
H6-CtBP2 (from UniProt P56545 1-445),binding,GST-E1A (adenovirus),binds
H6-RR-CtBP2 (from UniProt P56545 1-445),binding,GST-E1A (adenovirus),no binding (tested: ~0.1 μg in 200 μl)
same,binding,GST-ZEB101,binds
"adenovirus E1A, endogenous in 293 cells (from UniProt P03255 1-289)",binding,[4],no binding
"histone deacetylase 2 (HDAC2), endogenous (from UniProt Q92769 1-488) (enzyme)",binding,[5],binds
same,binding,[6],binds
same,binding,[4],binds
same,binding,[7],binds
same,binding,[8],binds
